Measurements published in PubChem BioAssay AID720506 (National Center for Advancing Translational Sciences (NCATS), 2013).
The whole screen tested about 2,300 compounds, of which about 95 (4%) were called active. This list was built around the results that the source calls inconclusive (neither active nor inactive); the mix of calls is not that of the screen. The call rests on the fitted dose curve; in most records, active means well fitted activation curve with a large enough effect; inconclusive means small, poorly fitted or top-dose-only effect; inactive means flat fitted curve, though single readings scatter. Potencies of inconclusive entries are doubtful fits and often do not repeat.

What follows are compounds tested against D(3) dopamine receptor (Homo sapiens) (UniProt P35462) (assay: qHTS of D3 Dopamine Receptor Agonist: D3 Dopamine Receptor B-arrestin Agonist Confirmatory Assay). Conditions: DiscoveRx D3 beta-arrestin cells, luminescence, 90 min; activation: at 76.9 µM (top of the series).
Procedure, shortened: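 DiscoveRx D3 cells, 1500/well, overnight 37 °C; cpds + dopamine ctrl 90 min 37 °C; detection reagent 30-60 min RT; luminescence, 20 s exposure.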
Further: nearly all actives have a fitted effect of over 70% in size.
Potency means the concentration at half of the fitted maximal effect; tags describe the fitted curve by direction and shape.
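Wherever activation is given: 100% = dopamine control response.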

Sequence of UniProt P35462 (P35462 whole entry, looked up): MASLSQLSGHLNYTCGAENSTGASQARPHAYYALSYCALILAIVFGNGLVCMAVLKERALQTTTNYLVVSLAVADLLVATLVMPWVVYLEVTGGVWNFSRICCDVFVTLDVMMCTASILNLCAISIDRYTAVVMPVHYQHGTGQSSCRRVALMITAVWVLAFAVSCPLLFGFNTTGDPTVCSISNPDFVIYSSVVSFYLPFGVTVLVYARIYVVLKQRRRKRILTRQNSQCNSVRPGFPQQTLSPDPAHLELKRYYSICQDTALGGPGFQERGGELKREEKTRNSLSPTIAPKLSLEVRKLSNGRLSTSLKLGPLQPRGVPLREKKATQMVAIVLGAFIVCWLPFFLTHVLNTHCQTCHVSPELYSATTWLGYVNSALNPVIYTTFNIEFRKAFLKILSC

SMILES	activation	Potency
CN1C[C@H](C(=O)N[C@]2(C)O[C@@]3(O)[C@@H]4CCCN4C(=O)[C@H](Cc4ccccc4)N3C2=O)CC2c3cccc4[nH]cc(c34)C[C@H]21 (stereo not given in full)	inactive: -2.3%	–
COc1cc(C(C)=O)ccc1OCC(O)CN1CCN(c2ccccc2)CC1 (stereo not given)	–	inconclusive: 0.141 µM [activator, full curve, poor fit]
O=C(NCCN1CCN(c2ccccc2)CC1)C1CCCN(S(=O)(=O)c2cnc[nH]2)C1 (stereo not given)	–	inconclusive: 0.891 µM [activator, full curve]
CCCCC(=O)OCc1c(-c2cccc(OC)c2)ncc2ccccc12	inactive: -8.36%	–
CCN(CC)S(=O)(=O)c1ccc(C)c(NC(=O)CNCc2ccccc2OC)c1	–	inconclusive: 1.12 µM [activator, full curve]
CC(C)NC[C@@H](O)c1ccc(O)c(O)c1	–	inconclusive: 44.7 µM [activator, partial curve, poor fit]
O=C(NCCCN1CCN(c2ccccc2F)CC1)C1CCCN(S(=O)(=O)c2cnc[nH]2)C1 (stereo not given)	–	inconclusive: 0.158 µM [activator, full curve]
O=C(Nc1cccc2ccccc12)N1CC=C(c2ccccc2)CC1	–	inconclusive: 39.8 µM [activator, partial curve, poor fit]
CCCNC(=O)C(Cc1ccc(Cl)cc1)NC(=O)c1ccc(C#N)cc1 (stereo not given)	inactive: -1.52%	–
CN(CCOc1ccccc1Cl)Cc1ccccc1	–	inconclusive: 1.12 µM [activator, partial curve, poor fit]
COc1ccc(-n2c(N)cc(=O)nc2SCC(=O)N2CCN(c3ccccc3)CC2)cc1	inactive: -12.1%	–
Cc1ccc(C)c(NC(=O)CCN2CCN(c3ccccc3F)CC2)c1	–	inconclusive: 0.199 µM [activator, full curve]
COc1ccccc1C(=O)NCCN1CCN(c2ccccc2)CC1	–	inconclusive: 0.316 µM [activator, full curve]
CN(CCOc1cccc2ccccc12)Cc1ccccc1	inactive: 7.54%	–
O=C1C=C(c2cccc(CO)c2)C[C@@H](c2ccc(Cl)cc2)C1	inactive: -6.18%	–
c1cnc(N2CCN(Cc3ccc4c(c3)OCO4)CC2)cn1	–	inconclusive: 20 µM [activator, partial curve, poor fit]
O=C(CN1CCN(c2ccccn2)CC1)Nc1cccc(S(=O)(=O)N2CCCC2)c1	–	inconclusive: 20 µM [activator, partial curve]
CCN1CCc2c(sc(NC(=S)NC(=O)c3ccco3)c2C(N)=O)C1	inactive: 7.61%	–
CCn1c(N2CCN(S(=O)(=O)c3ccccc3C(F)(F)F)CC2)nc2ccccc21	–	active: 12.6 µM
Cc1ccc(CN2CCN(c3ccccn3)CC2)s1	–	inconclusive: 0.178 µM [activator, full curve]
CS(=O)(=O)N(CCCC(=O)N1CCCCCC1)c1cccc(Cl)c1	inactive: -7.41%	–
CC1=C/C(=C\C=C(C#N)C#N)N(C)c2ccccc21	inactive: -26.3%	–
O=C(CN1CCc2ccccc2C1)Nc1ccccc1F	–	inconclusive: 0.891 µM [activator, full curve]

SMILES	activation	Potency
O=C1CC(=C2c3ccccc3-c3ccccc32)C(=O)N1CCCCN1CCN(c2ccccc2)CC1	inactive: 8.11%	–
Cc1cccc(C)c1NC(=O)NCCCN1CCN(c2ccccc2)CC1	–	inconclusive: 7.08 µM [activator, full curve, poor fit]
O=C(NCCN1CCN(c2ccccc2)CC1)c1cccc(Cl)c1	–	inconclusive: 0.178 µM [activator, full curve, poor fit]
O=C(CSc1ncccn1)Nc1cccc2ccccc12	inactive: -2.15%	–
Cc1ccc(S(=O)(=O)NCCC(=O)Nc2ccc(C)cc2C(=O)c2ccccc2)cc1	inactive: -3.56%	–
CCOc1ncccc1C(=O)N1CCN(Cc2ccc3c(c2)OCO3)CC1	–	inconclusive: 2.82 µM [activator, full curve]
CCc1ccc2c(CN3CCC(C(=O)OC)CC3)cc(=O)oc2c1	–	active: 3.98 µM
CC(C)N(C(=O)Nc1ccc2nsnc2c1)C(C)C	–	inconclusive: 39.8 µM [activator, partial curve, poor fit]
Clc1cccc(OCCN2CCN(CCOc3cccc(Cl)c3)CC2)c1	–	inconclusive: 1 µM [activator, full curve]
OC(COc1ccc2ccccc2c1)CN1CCN(c2ccc(F)cc2)CC1 (stereo not given)	–	inconclusive: 15.8 µM [activator, partial curve]
CCN(CC)S(=O)(=O)c1cc(NC(=O)c2ccc(-n3cncn3)c([N+](=O)[O-])c2)ccc1C	inactive: 20.1%	–
Cc1cc(C)c(OCC(O)CN2CCN(c3ccccn3)CC2)c(C)c1 (stereo not given)	–	active: 0.0794 µM
CC(CCc1ccccc1)NCC(O)c1ccc(O)c(C(N)=O)c1 (stereo not given)	inactive: 4.31%	–
O=C(COc1ccccc1[N+](=O)[O-])N(Cc1ccccc1)c1ccccn1	–	inconclusive: 28.2 µM [activator, full curve]
N#Cc1ccsc1NC(=O)CN1CCN(c2ccccn2)CC1	–	inconclusive: 35.5 µM [activator, partial curve, poor fit]
OC(COc1cccc2ccccc12)CN1CCN(c2ccccn2)CC1 (stereo not given)	–	active: 8.91 µM
CSc1ccc(NC(=O)NCCCN2CCN(c3ccccc3F)CC2)cc1	–	inconclusive: 3.16 µM [activator, partial curve, poor fit]
Cc1cccc(NC(=O)COc2ccccc2C(=O)NC(C)c2ccccc2)c1 (stereo not given)	–	inconclusive: 35.5 µM [activator, partial curve]
CCOc1cc(CNCCc2ccc(S(N)(=O)=O)cc2)ccc1OCc1ccc(Cl)cc1	–	inconclusive: 39.8 µM [activator, partial curve, poor fit]
CC(C)(C)c1ccccc1OCC(O)CN1CCN(c2ccccn2)CC1 (stereo not given)	–	inconclusive: 8.91 µM [activator, partial curve]
COc1cccc(C(=O)NCCN2CCN(c3ccccc3)CC2)c1	–	inconclusive: 0.178 µM [activator, full curve]
CCC(=O)c1ccc(OCC(O)CN2CCN(c3ccccn3)CC2)cc1 (stereo not given)	–	active: 0.891 µM
